From the supplement of paper PMC12423691
The other results are listed elsewhere or left out. Binding of human transcription factors and regulators to the viral nucleoprotein by AlphaScreen, crude cell-free proteins, amounts not normalised, one pass. Fold of the Venus control; higher = more signal. No active / inactive call. Single-pass screen; sequences are the whole Swiss-Prot entries looked up by name.

B1: TCF21, O43680 (protein)
chain: MSTGSLSDVEDLQEVEMLECDGLKMDSNKEFVTSNESTEESSNCENGSPQKGRGGLGKRRKAPTKKSPLSGVSQEGKQVQRNAANARERARMRVLSKAFSRLKTTLPWVPPDTKLSKLDTLRLASSYIAHLRQILANDKYENGYIHPVNLTWPFMVAGKPESDLKEVVTASRLCGTTAS
B2: RAI1, Q7Z5J4 (protein)
chain: MQSFRERCGFHGKQQNYQQTSQETSRLENYRQPSQAGLSCDRQRLLAKDYYNPQPYPSYEGGAGTPSGTAAAVAADKYHRGSKALPTQQGLQGRPAFPGYGVQDSSPYPGRYAGEESLQAWGAPQPPPPQPQPLPAGVAKYDENLMKKTAVPPSRQYAEQGAQVPFRTHSLHVQQPPPPQQPLAYPKLQRQKLQNDIASPLPFPQGTHFPQHSQSFPTSSTYSSSVQGGGQGAHSYKSCTAPTAQPHDRPLTASSSLAPGQRVQNLHAYQSGRLSYDQQQQQQQQQQQQQQALQSRHHAQETLHYQNLAKYQHYGQQGQGYCQPDAAVRTPEQYYQTFSPSSSHSPARSVGRSPSYSSTPSPLMPNLENFPYSQQPLSTGAFPAGITDHSHFMPLLNPSPTDATSSVDTQAGNCKPLQKDKLPENLLSDLSLQSLTALTSQVENISNTVQQLLLSKAAVPQKKGVKNLVSRTPEQHKSQHCSPEGSGYSAEPAGTPLSEPPSSTPQSTHAEPQEADYLSGSEDPLERSFLYCNQARGSPARVNSNSKAKPESVSTCSVTSPDDMSTKSDDSFQSLHGSLPLDSFSKFVAGERDCPRLLLSALAQEDLASEILGLQEAIGEKADKAWAEAPSLVKDSSKPPFSLENHSACLDSVAKSAWPRPGEPEALPDSLQLDKGGNAKDFSPGLFEDPSVAFATPDPKKTTGPLSFGTKPTLGVPAPDPTTAAFDCFPDTTAASSADSANPFAWPEENLGDACPRWGLHPGELTKGLEQGGKASDGISKGDTHEASACLGFQEEDPPGEKVASLPGDFKQEEVGGVKEEAGGLLQCPEVAKADRWLEDSRHCCSTADFGDLPLLPPTSRKEDLEAEEEYSSLCELLGSPEQRPGMQDPLSPKAPLICTKEEVEEVLDSKAGWGSPCHLSGESVILLGPTVGTESKVQSWFESSLSHMKPGEEGPDGERAPGDSTTSDASLAQKPNKPAVPEAPIAKKEPVPRGKSLRSRRVHRGLPEAEDSPCRAPVLPKDLLLPESCTGPPQGQMEGAGAPGRGASEGLPRMCTRSLTALSEPRTPGPPGLTTTPAPPDKLGGKQRAAFKSGKRVGKPSPKAASSPSNPAALPVASDSSPMGSKTKETDSPSTPGKDQRSMILRSRTKTQEIFHSKRRRPSEGRLPNCRATKKLLDNSHLPATFKVSSSPQKEGRVSQRARVPKPGAGSKLSDRPLHALKRKSAFMAPVPTKKRNLVLRSRSSSSSNASGNGGDGKEERPEGSPTLFKRMSSPKKAKPTKGNGEPATKLPPPETPDACLKLASRAAFQGAMKTKVLPPRKGRGLKLEAIVQKITSPSLKKFACKAPGASPGNPLSPSLSDKDRGLKGAGGSPVGVEEGLVNVGTGQKLPTSGADPLCRNPTNRSLKGKLMNSKKLSSTDCFKTEAFTSPEALQPGGTALAPKKRSRKGRAGAHGLSKGPLEKRPYLGPALLLTPRDRASGTQGASEDNSGGGGKKPKMEELGLASQPPEGRPCQPQTRAQKQPGHTNYSSYSKRKRLTRGRAKNTTSSPCKGRAKRRRQQQVLPLDPAEPEIRLKYISSCKRLRSDSRTPAFSPFVRVEKRDAFTTICTVVNSPGDAPKPHRKPSSSASSSSSSSSFSLDAAGASLATLPGGSILQPRPSLPLSSTMHLGPVVSKALSTSCLVCCLCQNPANFKDLGDLCGPYYPEHCLPKKKPKLKEKVRPEGTCEEASLPLERTLKGPECAAAATAGKPPRPDGPADPAKQGPLRTSARGLSRRLQSCYCCDGREDGGEEAAPADKGRKHECSKEAPAEPGGEAQEHWVHEACAVWTGGVYLVAGKLFGLQEAMKVAVDMMCSSCQEAGATIGCCHKGCLHTYHYPCASDAGCIFIEENFSLKCPKHKRLP
B3: DVL2, O14641 (protein)
chain: MAGSSTGGGGVGETKVIYHLDEEETPYLVKIPVPAERITLGDFKSVLQRPAGAKYFFKSMDQDFGVVKEEISDDNARLPCFNGRVVSWLVSSDNPQPEMAPPVHEPRAELAPPAPPLPPLPPERTSGIGDSRPPSFHPNVSSSHENLEPETETESVVSLRRERPRRRDSSEHGAGGHRTGGPSRLERHLAGYESSSTLMTSELESTSLGDSDEEDTMSRFSSSTEQSSASRLLKRHRRRRKQRPPRLERTSSFSSVTDSTMSLNIITVTLNMEKYNFLGISIVGQSNERGDGGIYIGSIMKGGAVAADGRIEPGDMLLQVNDMNFENMSNDDAVRVLRDIVHKPGPIVLTVAKCWDPSPQAYFTLPRNEPIQPIDPAAWVSHSAALTGTFPAYPGSSSMSTITSGSSLPDGCEGRGLSVHTDMASVTKAMAAPESGLEVRDRMWLKITIPNAFLGSDVVDWLYHHVEGFPERREARKYASGLLKAGLIRHTVNKITFSEQCYYVFGDLSGGCESYLVNLSLNDNDGSSGASDQDTLAPLPGATPWPLLPTFSYQYPAPHPYSPQPPPYHELSSYTYGGGSASSQHSEGSRSSGSTRSDGGAGRTGRPEERAPESKSGSGSESEPSSRGGSLRRGGEASGTSDGGPPPSRGSTGGAPNLRAHPGLHPYGPPPGMALPYNPMMVVMMPPPPPPVPPAVQPPGAPPVRDLGSVPPELTASRQSFHMAMGNPSEFFVDVM
B4: TSC22D2, O75157 (protein)
chain: MSKMPAKKKSCFQITSVTTAQVATSITEDTESLDDPDESRTEDVSSEIFDVSRATDYGPEEVCERSSSEETLNNVGDAETPGTVSPNLLLDGQLAAAAAAPANGGGVVSARSVSGALASTLAAAATSAPAPGAPGGPQLAGSSAGPVTAAPSQPPTTCSSRFRVIKLDHGSGEPYRRGRWTCMEYYERDSDSSVLTRSGDCIRHSSTFDQTAERDSGLGATGGSVVVVVASMQGAHGPESGTDSSLTAVSQLPPSEKMSQPTPAQPQSFSVGQPQPPPPPVGGAVAQSSAPLPPFPGAATGPQPMMAAAQPSQPQGAGPGGQTLPPTNVTLAQPAMSLPPQPGPAVGAPAAQQPQQFAYPQPQIPPGHLLPVQPSGQSEYLQQHVAGLQPPSPAQPSSTGAAASPATAATLPVGTGQNASSVGAQLMGASSQPSEAMAPRTGPAQGGQVAPCQPTGVPPATVGGVVQPCLGPAGAGQPQSVPPPQMGGSGPLSAVPGGPHAVVPGVPNVPAAVPAPSVPSVSTTSVTMPNVPAPLAQSQQLSSHTPVSRSSSIIQHVGLPLAPGTHSAPTSLPQSDLSQFQTQTQPLVGQVDDTRRKSEPLPQPPLSLIAENKPVVKPPVADSLANPLQLTPMNSLATSVFSIAIPVDGDEDRNPSTAFYQAFHLNTLKESKSLWDSASGGGVVAIDNKIEQAMDLVKSHLMYAVREEVEVLKEQIKELVERNSLLERENALLKSLSSNDQLSQLPTQQANPGSTSQQQAVIAQPPQPTQPPQQPNVSSA
B5: CREB3L4, Q8TEY5 (protein)
chain: MDLGIPDLLDAWLEPPEDIFSTGSVLELGLHCPPPEVPVTRLQEQGLQGWKSGGDRGCGLQESEPEDFLKLFIDPNEVYCSEASPGSDSGISEDPCHPDSPPAPRATSSPMLYEVVYEAGALERMQGETGPNVGLISIQLDQWSPAFMVPDSCMVSELPFDAHAHILPRAGTVAPVPCTTLLPCQTLFLTDEEKRLLGQEGVSLPSHLPLTKAEERVLKKVRRKIRNKQSAQDSRRRKKEYIDGLESRVAACSAQNQELQKKVQELERHNISLVAQLRQLQTLIAQTSNKAAQTSTCVLILLFSLALIILPSFSPFQSRPEAGSEDYQPHGVTSRNILTHKDVTENLETQVVESRLREPPGAKDANGSTRTLLEKMGGKPRPSGRIRSVLHADEM
B6: PURA, Q00577 (protein)
chain: MADRDSGSEQGGAALGSGGSLGHPGSGSGSGGGGGGGGGGGGSGGGGGGAPGGLQHETQELASKRVDIQNKRFYLDVKQNAKGRFLKIAEVGAGGNKSRLTLSMSVAVEFRDYLGDFIEHYAQLGPSQPPDLAQAQDEPRRALKSEFLVRENRKYYMDLKENQRGRFLRIRQTVNRGPGLGSTQGQTIALPAQGLIEFRDALAKLIDDYGVEEEPAELPEGTSLTVDNKRFFFDVGSNKYGVFMRVSEVKPTYRNSITVPYKVWAKFGHTFCKYSEEMKKIQEKQREKRAACEQLHQQQQQQQEETAAATLLLQGEEEGEED
B7: ZNF585B, Q52M93 (protein)
chain: MPASWTSPQKSSALAPEDHGSSYEGSVSFRDVAIDFSREEWRHLDLSQRNLYRDVMLETYSHLLSVGYQVPKPEVVMLEQGKEPWALQGERPRHSCPGEKLWDHNQHRKIIGYKPASSQDQKIYSGEKSYECAEFGKSFTWKSQFKVHLKVPTGEKLYVCIECGRAFVQKPEFITHQKTHMREKPYKCNECGKSFFQVSSLFRHHRIHTGEKLYECSECGKGFPYNSDLSIHEKIHTGERHHECTDCGKAFTQKSTLKIHQKIHTGERSYICIECGQAFIQKTQLIAHRRIHSGEKPYECNNCGKSFISKSQLQVHQRVHTRVKPYICTEYGKVFSNNSNLITHEKIQSREKSSICTECGKAFTYRSELIIHQRIHTGEKPYECSDCGRAFTQKSALTVHQRIHTGEKSYICMKCGLAFIRKAHLITHQIIHTGEKPYKCGHCGKLFTSKSQLHVHKRIHTGEKPYVCNKCGKAFTNRSNLITHQKTHTGEKSYICSKCGKAFTQRSDLITHQRIHTGEKPYECNTCGKAFTQKSNLNIHQKIHTGERQYECHECGKAFNQKSILIVHQKIHTGEKPYVCTECGRAFIRKSNFITHQRIHTGEKPYECSDCGKSFTSKSQLLVHQPVHTGEKPYVCAECGKAFSGRSNLSKHQKTHTGEKPYICSECGKTFRQKSELITHHRIHTGEKPYECSDCGKSFTKKSQLQVHQRIHTGEKPYVCAECGKAFSNRSNLNKHQTTHTGDKPYKCGICGKGFVQKSVFSVHQSSHA

Each binder was assayed against nucleoprotein N of Crimean-Congo hemorrhagic fever virus (assay: AlphaScreen luminescence signal relative to Venus negative control (fold); higher = stronger binding to CCHFV N).
Experimental: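 AlphaScreen binding of cell-free made, FLAG-GST-tagged human transcription factors and regulators (crude translation products) to biotinylated N protein; signal as fold of the FLAG-GST-Venus control. One pass.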
B1 showed an AlphaScreen luminescence signal of 7.86.
In the case of B2, the AlphaScreen luminescence signal is reported as 1.49.
With B3 the AlphaScreen luminescence signal was 1.81.
Work on B4 yielded an AlphaScreen luminescence signal of 1.16.
B5 showed an AlphaScreen luminescence signal of 3.81.
Binder B6 has an AlphaScreen luminescence signal of 5.12.
With B7 the AlphaScreen luminescence signal was 4.37.
